About 14,000 (4.5%) of roughly 310,000 compounds showed an effect of 50% or more. The effect is printed as a negative number. This is one part of the list.
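Also: peak tail current of the secondary pulse compared with the same well before compound.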

For this test, the target named is human ether-à-go-go-related gene (hERG) potassium channel (human, UniProt Q12809). Kind of test: primary screen, population patch clamp on CHO cells stably expressing hERG.
human ether-à-go-go-related gene (hERG) potassium channel, sequence (Q12809 whole entry, looked up): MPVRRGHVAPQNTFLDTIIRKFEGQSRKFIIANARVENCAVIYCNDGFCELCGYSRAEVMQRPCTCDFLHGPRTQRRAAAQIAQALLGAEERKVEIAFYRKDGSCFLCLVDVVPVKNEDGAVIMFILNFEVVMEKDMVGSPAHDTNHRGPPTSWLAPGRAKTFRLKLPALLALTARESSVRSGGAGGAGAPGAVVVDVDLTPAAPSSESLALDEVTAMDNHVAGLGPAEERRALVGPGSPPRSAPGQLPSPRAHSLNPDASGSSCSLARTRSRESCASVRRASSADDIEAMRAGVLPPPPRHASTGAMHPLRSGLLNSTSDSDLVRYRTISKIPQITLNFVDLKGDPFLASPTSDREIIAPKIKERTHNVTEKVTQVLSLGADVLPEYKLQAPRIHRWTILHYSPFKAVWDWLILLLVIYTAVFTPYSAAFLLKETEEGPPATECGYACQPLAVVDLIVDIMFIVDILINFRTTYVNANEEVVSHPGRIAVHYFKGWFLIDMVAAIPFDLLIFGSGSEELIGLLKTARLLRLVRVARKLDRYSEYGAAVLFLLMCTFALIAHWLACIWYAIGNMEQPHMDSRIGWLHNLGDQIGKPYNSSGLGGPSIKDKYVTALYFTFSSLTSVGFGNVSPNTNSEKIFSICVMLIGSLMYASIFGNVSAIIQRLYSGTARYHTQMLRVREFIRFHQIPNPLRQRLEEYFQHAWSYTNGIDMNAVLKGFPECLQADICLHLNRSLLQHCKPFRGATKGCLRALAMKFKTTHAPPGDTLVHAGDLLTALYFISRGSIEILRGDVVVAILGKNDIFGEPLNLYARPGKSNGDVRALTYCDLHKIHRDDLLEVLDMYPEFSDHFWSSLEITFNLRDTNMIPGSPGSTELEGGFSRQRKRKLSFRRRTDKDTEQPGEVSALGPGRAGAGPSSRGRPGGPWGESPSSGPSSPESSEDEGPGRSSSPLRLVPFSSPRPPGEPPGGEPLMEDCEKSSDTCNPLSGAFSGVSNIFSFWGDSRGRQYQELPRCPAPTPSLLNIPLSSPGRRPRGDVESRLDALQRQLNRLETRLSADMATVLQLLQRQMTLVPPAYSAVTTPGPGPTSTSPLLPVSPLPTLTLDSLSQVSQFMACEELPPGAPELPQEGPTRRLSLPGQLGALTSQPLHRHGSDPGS
With `Cc1onc(-c2ccc3c(c2)OCO3)c1-c1ccc2[nH]ccc2c1`, the “hERG current change (%, negative = inhibition) at 10uM” value is -17.9%.
The value for `Cc1ccc(OCC(=O)NCCO)c(Br)c1` was 14.3%.
The value for `O=C(NC1CCN(Cc2nnnn2CCc2ccccc2)CC1)c1ccccc1F` was -3.18%; that for `CS(=O)(=O)N(CC(N)=O)Cc1ccc(Cl)cc1` was -28%.
The value for `CN(C)c1ccc(C2/C(=C(/O)c3ccccc3)C(=O)C(=O)N2CCCC(=O)O)cc1` (centres unmarked) was -10.7%; that for `CCC1(C)Cc2c(sc3nn[nH]c(=O)c23)CO1` (centres unmarked) was 11.4%; that for `Cc1ccc(OCC(=O)NC2CCS(=O)(=O)C2)c([N+](=O)[O-])n1` (centres unmarked) was 18.5%.
For the compound `O=S(=O)(NC1CCCCC1)c1ccc(Cl)nc1`, the “hERG current change (%, negative = inhibition) at 10uM” value is -1.36%.
The value for `COc1ccc(C(=O)Nc2cnccn2)cc1[N+](=O)[O-]` was 6.88%.
To `CN(C(=S)Nc1ccccc1F)C1(c2ccccc2Cl)CCCCC1=O` (centres unmarked) belongs 3.09%.
Regarding `COc1ccc(C2=NN(C(=O)CSc3ncccn3)C(c3ccc(OC)cc3)C2)cc1` (centres unmarked), the “hERG current change (%, negative = inhibition) at 10uM” value was -4.78%.
On to `CS(=O)(=O)c1ccc2nc(NC(=O)C3CCCO3)sc2c1` (centres unmarked), for which the “hERG current change (%, negative = inhibition) at 10uM” value is given as 15.7%.
The value for `CCC(C)n1c(O)c(C(c2ccccn2)c2c(O)n(C(C)CC)c(=S)[nH]c2=O)c(=O)[nH]c1=S` (centres unmarked) was 10%; that for `O=C(NCc1ccccc1)c1ccccc1-c1nc2ccccc2[nH]1` was 5.07%.
The value for `COc1cccc(/C=C/C(=O)NCCc2ccc(OC)c(OC)c2)c1` was -16.3%.
On to `O=C(OCc1c(-c2ccccc2)ncc2ccccc12)c1cccc(Br)c1`, for which the “hERG current change (%, negative = inhibition) at 10uM” value is recorded as -0.0854%.
The value for `CN(CC(=O)Nc1cccc(F)c1)C(=O)c1ccc(-c2ccc(Cl)cc2)o1` was 8.35%; that for `CC(C)C(=O)Nc1nnc(-c2ccccc2)o1` was 13.2%.
On to `c1ccn2cc(CSC3=NCCS3)nc2c1`, for which the “hERG current change (%, negative = inhibition) at 10uM” value is 12.5%.
The value for `C#CCOc1ccc2ccccc2c1/C=C(/C#N)c1ccc(C(=O)O)cc1` was 9.4%.
To `CC(C)(O)[C@H]1Cc2cc3ccc(=O)oc3cc2O1` belongs 21.2%; to `CCOc1ccc(OCCCC(=O)N(CC)CC(=O)Nc2c(F)cccc2F)cc1`, -5.99%; to `COc1ccc2[nH]cc(CCNS(=O)(=O)Cc3ccccc3)c2c1`, 12.2%.
In the case of `CCN(C(=O)CN1C(=O)NC(c2ccccc2)(c2ccc(C)c(C)c2)C1=O)C1CCS(=O)(=O)C1` (centres unmarked), the “hERG current change (%, negative = inhibition) at 10uM” value was -53.4%.
Consider `COc1cc(OC)c(OC)cc1CN1CCN(Cc2cccc(F)c2)CC1.O=C(O)C(=O)O`, for which the “hERG current change (%, negative = inhibition) at 10uM” value is 10.2%.
To `CCOc1ccc(S(=O)(=O)NCCC(=O)NC2CCCCC2)cc1` belongs -8.11%.
To `O=C(NCCC1=CCCCC1)C1CCN(S(=O)(=O)N2CCCC2)CC1` belongs 5.75%; to `COc1ccc(CN(CCN(C)C)c2ccccn2)cc1.O=C(O)/C=C\C(=O)O`, -38.5%.
The value for `CC(C)(C)c1ccc(S(=O)(=O)N2CCN(CC(O)COCC3CCCO3)CC2)cc1` (centres unmarked) was -37.3%.
`CC(=O)c1ccc(NC(=O)C(C)N2CCN(C/C=C/c3ccccc3)CC2)cc1` (centres unmarked): the “hERG current change (%, negative = inhibition) at 10uM” value is -71.4%.
As to `CC(=O)Nc1ccc(S(=O)(=O)NCCSCc2ccco2)cc1`, the “hERG current change (%, negative = inhibition) at 10uM” value is reported as -7.67%.
To `COc1ccccc1NC(=O)COc1ccccc1` belongs 10.9%; to `CN(C)C1=NCCN1CCCCc1ccccc1`, -37.4%; to `CCOn1c(=O)c[n+]([O-])c2ccccc21`, 29%.
With `COc1ccccc1N1CCN(C(=O)/C=C/c2c(Cl)nc3ccccn23)CC1`, the “hERG current change (%, negative = inhibition) at 10uM” value is -4.08%.
`CC1(C)Cc2c(cnn2-c2cccc(F)c2)C(NC(=O)CSc2ccncc2)C1` (centres unmarked): the “hERG current change (%, negative = inhibition) at 10uM” value is -56.5%.
To `CCOC(=O)C1(CCSC)NC(c2ccco2)C2C(=O)N(C)C(=O)C21` (centres unmarked) belongs 11%; to `COc1ccc2cc(-c3[nH]ncc3CN3C[C@@H]4CCC[C@H]3C4)ccc2c1`, -58.7%.
Turning to `O=C(N/N=C/c1cn[nH]c1-c1ccc(F)cc1)c1ccncc1`, the “hERG current change (%, negative = inhibition) at 10uM” value is 6.55%.
`N#CCCCSc1nnc(-c2ccc(Cl)cc2)n1-c1ccccc1`: the “hERG current change (%, negative = inhibition) at 10uM” value is on record as -10%.
To `CCOC(=O)Cc1cc(=O)[nH]c(/N=C(\N)Nc2ccc(OC)cc2)n1` belongs 5.04%; to `CCn1c(CSc2nc3ccccc3s2)n[nH]c1=S`, 15.8%; to `CCN(CC(=O)Nc1ccc(NC(C)=O)cc1)C(=O)c1ccccc1SCC(=O)N1CCCC1`, 4.37%.
On to `CCC(C)c1c(O)nc(SCC(=O)N2CCOCC2)[nH]c1=O` (centres unmarked), for which the “hERG current change (%, negative = inhibition) at 10uM” value is listed as -1.36%.

The record behind these values is PMC4336329 (PLoS ONE, 2015).
